The values below come from ChEMBL document CHEMBL1157539, “Thousands of chemical starting points for antimalarial lead identification” (Nature, 2010).

The full ranking holds about 13,000 compounds; the median of “IFI” is about 4, and the highest 2% start at about 17. This is one part of the list.

The assay can be described thus: GSK_TCMDC: Inhibition Frequency Index (IFI). The number of non-kinase HTS assays where a compound showed > 50 % inhibition, expressed as a percentage of the number of such assays in which the compound was tested (-0 is zero). The class given is functional.
The molecule `CCNc1cc(C(=O)N[C@@H](Cc2cccc(Cl)c2)[C@H](O)CNC(C)CCCC(C)C)cc(N2CCCCS2(=O)=O)c1` (stereo partly specified) registered an IFI of 9.72%.

In turn, `O=C1OC(c2ccccc2)(c2ccccn2)CN1C1CCN(Cc2cccn2-c2ccc(Cl)cc2)CC1` (stereo unspecified) gave an IFI of 3.42%.

The molecule `O=C(C=Cc1ccc(Cl)c(Cl)c1)NCCCCCN1CCCC(CCCNC(=O)c2sc3ccccc3c2Cl)C1` (stereo unspecified) yielded an IFI of 9.02%.

In turn, `COc1ccc(NC(=O)Nc2ccc(-c3ccncc3)c(C(F)(F)F)c2)cc1N1CCN(C)CC1` had an IFI of 0.7%.

With `CCn1ccc2c(N3CCCS3(=O)=O)cc(C(=O)N[C@@H](Cc3ccccc3)[C@H](O)CNC3CCCCC3)cc21`, the IFI turned out to be 1.46%.

For the molecule `O=C(NNC(=O)c1ccc(CCN2CCC(c3nc(COCC(F)(F)F)c(-c4ccc(F)cc4)o3)CC2)cc1)Nc1ccc(Oc2ccccc2)cc1`, the IFI is 2.84%.

For `CCCNCc1ccc(-c2ccc(CN(CCOC)C(=O)/C=C/c3ccccc3C)cc2)nc1`, the IFI is 1.52%.

As to `CCO[C@H]1CN[C@H](C#Cc2cc3c(Nc4ccc(OCc5cccc(F)c5)c(Cl)c4)ncnc3s2)C1`, the IFI is 4.8%.

As to `CN1CCN(c2ccnc3ccc(NC(=O)Nc4ccc(-c5ccncc5)c(C#N)c4)cc23)CC1`, the IFI turned out to be 7.69%.

Molecule `Cc1c[nH]c2ccc(/C=C/C(=O)NC3CCC(CCN4CCc5ccc(C#N)cc5CC4)CC3)cc12` (stereo unspecified) showed an IFI of 2.27%.

`CCCCN(C(=O)c1ccccc1C)c1nnc(-c2ccccc2C)s1` showed an IFI of 2.56%.

`COc1cc(C(F)(F)F)cc2[nH]c(CNCCCNc3nc4ccccc4[nH]3)cc12` had an IFI of 9.35%.

`S=C(Nc1cccc(Cl)c1)NC1CCN(c2ccnc3cc(Cl)ccc23)C1` (stereo unspecified) came in with an IFI of 13.6%.

In turn, `CN(C)C(=S)N/N=C1/C(=O)Nc2ccccc21` displayed an IFI of 5.04%.

`CC(C)Cc1csc(NC(=O)C=Cc2ccco2)c1C(=O)O`: the IFI is 5.52%.

On to `O=C(NC1CC1)c1ccc2cc(C(=O)N3Cc4ccccc4C(c4ccccc4)C3)ccc2c1` (stereo unspecified), for which the IFI came out at 2.96%.

For `CC(C)(C)c1ccc2[nH]c(-c3ccc(C(=O)NCc4cccc(C(F)(F)F)c4)cc3)nc2c1`, the IFI stood at 2.96%.

Molecule `COc1ccc2ncc(F)c(CCN3CC(O)C(CNCc4ccccc4)C3)c2n1` (stereo unspecified) showed an IFI of 2.94%.

Molecule `CCn1c(-c2nonc2N)nc2c(-c3cccc(NC(=O)Nc4cccc(OC)c4)c3)ncc(OCCCN)c21` returned an IFI of 15.6%.

In the case of `Cc1c(CNCCCNc2cc(=O)c3ccccc3[nH]2)sc(/C=N/O)c1Br`, the IFI amounted to 2.17%.

As for `Cc1c(-c2cccc(C(C)(C)NCCCN3CCCCC3)c2)cnc(N)c1C`, the IFI was 0.74%.

`Cc1nc(N)nc(N)c1-c1cc(Cl)c(Cl)c(Cl)c1` showed an IFI of 2.29%.

`CN(CCCCCN1CCC(NC(=O)Nc2ccc(Oc3ccccc3)cc2)C1)C(=O)/C=C/c1ccc(Cl)c(Cl)c1` (stereo unspecified): the IFI stood at 9.77%.

Take `O=C(Nc1ccccc1)N(Cc1cccc(-c2cccc(CNCc3ccc4c(c3)OCO4)c2)c1)C1CCN(Cc2ccccc2)CC1`: the IFI is 9.29%.

`CN1CCC(N2CCN(Cc3cccc(-c4ccc(-c5nc6cc(F)ccc6[nH]5)cc4)c3)CC2)CC1`: the IFI is 8.33%.

As to `CS(=O)(=O)c1ccc(CCNCc2ccc(-c3ccc(CN(C(=O)C4CC(=O)c5ccccc54)C4CCN(Cc5ccccc5)CC4)cc3)nc2)cc1` (stereo unspecified), the IFI was 5.41%.

In the case of `CC(CC(=O)NCC1(c2ccc(F)cc2Cl)CCOCC1)C(=O)c1ccc(Cl)cc1` (stereo unspecified), the IFI was found to be 1.56%.

The molecule `O=S(=O)(NCCN1CCCC1)c1ccc(-c2cccc(CNCc3ccsc3)c2)s1` had an IFI of 6.9%.

`O=C(NC1CCC(N2CCC(O)(c3ccc(F)cc3)CC2)CC1)c1cc2ccccc2[nH]1` (stereo unspecified): the IFI was determined as 1.54%.

`CC(C)N1CCC(N(Cc2ccc(-c3ccc(C(F)(F)F)cc3)cc2)C(=O)Cn2c(SCc3cccc(F)c3F)nc(=O)c3ccccc32)CC1`: the IFI is 5.71%.

In the case of `O=C(NCCc1ccccc1)N(Cc1cccc(-c2ccc(CNC3CCCC3)cc2)c1)C1CCN(Cc2ccccc2)CC1`, the IFI stood at 7.86%.

`CC1CN(c2cc(=O)n(Cc3ccc(NC(=O)Nc4ccc(-c5ccccc5)cc4)cc3)cn2)CC(C)N1` (stereo unspecified): the IFI stood at 2.9%.

`Cc1cc(C)c(S(=O)(=O)N2CCCCC(c3cccc(C(F)(F)F)c3)=N2)c(C)c1`: the IFI came to 1.46%.

In turn, `CCC(C)NS(=O)(=O)c1ccc2nc(Nc3ccc(C)cc3)n(C3CCCCC3)c2c1` (stereo unspecified) came in with an IFI of 2.94%.

On to `O=C(Nc1ccc(OC2CCN(Cc3ccccc3)C2)c(Cl)c1)c1cccs1` (stereo unspecified), for which the IFI was 6.06%.

With `COc1ccc(NC(=O)/C=C/c2cc(F)cc(C(F)(F)F)c2)cc1OCCN(C(C)C)C(C)C`, the IFI was 3.7%.

Regarding `c1ccc(CSC2=NNC(c3ccccn3)S2)cc1` (stereo unspecified), the IFI is 4.08%.

For the molecule `CCc1cn2c3c(cc(C(=O)N[C@@H](Cc4ccccc4)[C@H](O)CNCCOC)cc13)N(C)S(=O)(=O)CC2`, the IFI is -0%.

In the case of `COc1ccc2ncc(F)c(CCN3CCC(NCc4cc(OC)c5c(c4)OCCO5)CC3)c2n1`, the IFI is -0%.

Turning to `CN1CCCC1CNS(=O)(=O)c1ccc(C(=O)NCC2CC2)cc1` (stereo unspecified), the IFI is -0%.

In turn, `COc1ccc(Nc2c3ccc(Cl)cc3nc3ccc(OC)cc23)cc1` gave an IFI of 5.11%.

Molecule `COc1ccc2ncc(C#N)c(CCN3CCC(NCc4cnc5c(c4)OCCO5)CC3)c2n1` registered an IFI of 2.33%.

In turn, `Cc1ccccc1C1CCN(C2CCC(NC(=O)/C=C/c3ccc(C(F)(F)F)cc3F)CC2)CC1` (stereo unspecified) showed an IFI of 13.3%.

On to `CCCCN(CCCC)Cc1cc2ccccc2cc1O`, for which the IFI was 2.22%.

`Fc1ccccc1C=NN=c1cc[nH]c2ccccc12`: the IFI was 1.45%.

Take `O=C(NC1CCN(Cc2ccc(F)cc2)CC1)c1ccc(-c2cccc(C(F)(F)F)c2)s1`: the IFI came out at 24.6%.

In the case of `CCCCNC[C@@H](O)[C@H](Cc1ccccc1)NC(=O)c1cc(NCC)cc(N2CCCCS2(=O)=O)c1`, the IFI was found to be 1.47%.

For `Cc1sc(C)c(C(F)(F)F)c1CNCCCNc1cc(=O)c2ccccc2[nH]1`, the IFI came out at 0.73%.

Turning to `COc1ccc2nccc([C@@H](O)CN3CCC(NCc4ccc5c(n4)NCCC5)CC3)c2c1`, the IFI is 0.88%.

`CCC(C)OC(=O)C1=C(C)NC2=C(C(=O)CC(c3ccc(OC)c(OC)c3)C2)C1c1ccc(C)o1` (stereo unspecified): the IFI is 2.72%.

Molecule `Nc1nc(N)c2nc(C3CC=CCC3)c(N)nc2n1` (stereo unspecified) had an IFI of 2.84%.

For the molecule `Cc1cc2ccc(-c3cccc(CN)c3)cc2nc1N`, the IFI is -0%.

In turn, `Cc1ccc(CON2C(=N)N=C(N)NC2(C)C)cc1C` yielded an IFI of 1.43%.

For the molecule `O=C(Oc1ccc(Cl)cc1C(=O)Nc1ccc([N+](=O)[O-])cc1Cl)c1ccccc1`, the IFI came to 22.4%.

`O=C(c1ccc(-c2ccc(-c3nc4cc(C(F)(F)F)ccc4[nH]3)s2)cc1)N1CCN(CCc2ccccc2)CC1` showed an IFI of 5.66%.

Regarding `Cc1ccc(Nc2nccc(N(C)c3ccc4c(c3)nc(NC(=O)Cc3ccc(Cl)c(Cl)c3)n4C)n2)cc1S(N)(=O)=O`, the IFI turned out to be 9.16%.
